Laboratory results as given in the supplement of paper PMC12645437, “Orthogonal IMiD-Degron Pairs Induce Selective Protein Degradation in Cells” (ACS Chemical Biology, 2025).
This is one part of the list.

B1: Q9UKT9 (peptide)
chain: FRCPICGAAFTQKGNLLRHIKL
B2: Q9UKT9 (peptide)
chain: FVCEICGAFFTQKGNLLRHIKL
B3: Q9UKT9 (peptide)
chain: FLCPICGHSFTQKGNLLRHIKL
B4: Q9UKT9 (peptide)
chain: FMCEQCGARFTQKGNLLRHIKL
B5: Q9UKT9 (peptide)
chain: FRCSVCGHHFTQKGNLLRHIKL
B6: Q9UKT9 (peptide)
chain: FLCDQCGANFTQKGNLLRHIKL
B7: Q9UKT9 (peptide)
chain: FHCPICGAAFTQKGNLLRHIKL
B8: Q9UKT9 (peptide)
chain: FICDICGARFTQKGNLLRHIKL
B9: Q9UKT9 (peptide)
chain: FLCDQCGAEFTQKGNLLRHIKL
B10: Q9UKT9 (peptide)
chain: FMCNICGAYFTQKGNLLRHIKL
B11: Q9UKT9 (peptide)
chain: FFCPICGHCFTQKGNLLRHIKL
B12: Q9UKT9 (peptide)
chain: LNCPICGFKCTQKGNLLRHIKL
B13: Q9UKT9 (peptide)
chain: FVCDVCGAWFTQKGNLLRHIKL
B14: Q9UKT9 (peptide)
chain: FHCNQCGRIFTQKGNLLRHIKL
B15: Q9UKT9 (peptide)
chain: FMCDQCGAEFTQKGNLLRHIKL
B16: Q9UKT9 (peptide)
chain: FMCPVCGANFTQKGNLLRHIKL
B17: Q9UKT9 (peptide)
chain: FGCPQCGAPFTQKGNLLRHIKL
B18: Q9UKT9 (peptide)
chain: FACEQCGAHFTQKGNLLRHIKL
B19: Q9UKT9 (peptide)
chain: FVCEICGHCFTQKGNLLRHIKL
B20: Q9UKT9 (peptide)
chain: FLCPQCGACFTQKGNLLRHIKL
B21: Q9UKT9 (peptide)
chain: FHCEICGHGFTQKGNLLRHIKL
B22: Q9UKT9 (peptide)
chain: FNCPICGHHFTQKGNLLRHIKL
B23: Q9UKT9 (peptide)
chain: FDCDQCGANFTQKGNLLRHIKL
B24: Q9UKT9 (peptide)
chain: FNCEICGRMFTQKGNLLRHIKL
B25: Q9UKT9 (peptide)
chain: FQCDICGAKFTQKGNLLRHIKL
B26: Q9UKT9 (peptide)
chain: FYCDQCGANFTQKGNLLRHIKL
B27: Q9UKT9 (peptide)
chain: FFCNVCGASFTQKGNLLRHIKL
B28: Q9UKT9 (peptide)
chain: FACDICGACFTQKGNLLRHIKL
B29: Q9UKT9 (peptide)
chain: FTCEICGRNFTQKGNLLRHIKL
B30: Q9UKT9 (peptide)
chain: FNCEQCGARFTQKGNLLRHIKL
B31: Q9UKT9 (peptide)
chain: FKCPVCGAHFTQKGNLLRHIKL
B32: Q9UKT9 (peptide)
chain: FWCPVCGAWFTQKGNLLRHIKL

What follows are sequences tested against no compound (DMSO) (assay: log2 fold change of degron read counts, EGFP-low vs EGFP+ sorted cells; higher = lower degron-EGFP level without compound (poor expression or instability)). Conditions: compound: DMSO control; 18 h.
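Note: jurkat cells carrying a lentiviral library of mutant zinc finger degrons fused to EGFP plus mCherry, mCherry+ cells FACS sorted, degron abundance counted by next-generation sequencing.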

Sequence	log2 fold change of degron read counts
B1	-0.41
B2	-1.04
B3	-0.743
B4	-0.937
B5	-0.201
B6	-2.79
B7	-0.993
B8	-1.38
B9	-3.39
B10	0.167
B11	0.187
B12	0.187
B13	-0.783
B14	0.755
B15	-1.35
B16	-0.202

Sequence	log2 fold change of degron read counts
B17	-0.94
B18	-2.44
B19	-1.7
B20	-0.498
B21	-1.45
B22	-0.435
B23	-1.29
B24	-0.729
B25	-1.35
B26	-2.04
B27	-0.136
B28	-1.29
B29	-1.18
B30	-0.975
B31	-0.818
B32	1.8
